Assay results from the RNAGym collection of RNA variant scans (doi:10.7554/elife.90254).
The source gives no read counts; variants with many changes may rest on few reads.

B1: LINE1-mini (parent)
chain: GGCAGAGCUCAACACAGCGUGGCAAAGUGGCUGUGGCUAGACUGCC

Variants of: B1
Assay: self-cleavage, relative activity (ratio to wild type); higher = more cleavage; in vitro, sequencing; the parent is a self-cleaving ribozyme

Variant | self-cleavage
GGCGGAGCUCAACACAGCGUGGGAGAGUGGCUGUGGCUAGACUGCC | 0.12
GGCAGAGCACAAAACAGCCUGGCAAAGUGGCUGUGGCUAGACUGCC | 0.06
GGCACAGCUCAACACAGCGUGGCAACGUGUCUGUAGCUAGGCUGCU | 0.03
GGCAGAGCUCAACACAGCGUGGCAAAGUGGCUCUGGAUAGACUGCA | 0
AGCAGCGCUCAAGACAGCGUGGCAAAGUGGCUGUGGCUAGACUGCC | 0.07
GGCAGAGCUGAACAAAGCGUGGCAAAGUGGCUGUGGCUAGACUGGC | 0.02
CGCAGAGCUCAACACAGCUUGGCACAGUGGCUGUCUCUAGACUGCC | 0.01
GGCAGACCUCAACAGAGCGUGGUAUAGUGGCUGUGGCUAGACUGCC | 0.05
GGCAGAGCUCAACACAACGUAGCAAAGUGCCUGUGGCUAGACUGCC | 0.07
GAGAGAGCACAACACAGCGUGGCAAAGUGGCUGUGGCUAGACUGCC | 1.37
GGCUGAGAUCAACACCGCGUGGCAAAGUGGCUUUGGCGGGACUGCC | 0.13
GGCAGAGCUCAGCACAGAAUGGCAAAGUGGCUGUGUCUAGACUGGC | 0.01
GGCAGAACUCAACACAGCGUGGCAAAGUGGCUGACUCUAGACUACC | 0.07
GGCAGAGCUAAAUACAGCGUGACAAAGUGGCCGUUGCUAGACUGCC | 0.03
GUCGGAGCUAAUAACAGCGUGGCAAAGUGGCUCUGGCUAGACUGCC | 0.02
GGCAAAGCUCAACACAUCUUGGCAAAGUGGCUGUUGCUAGACAGCC | 0.03
GGCAGAGAUCAACACAGCGUGGCAAAGUGGCUAUGGCAAGACUGCC | 1.21
CGCAGAGCUCAACACAGACUCCCAGUGUGGCCAUGGCUAGACUGCC | 0.01
GGCAGAUUUCAACACAGCGUGGGAAAGUGGCGGUGGCUAGACUCCC | 0.09
GGCAGAGAACAACACAGCGUGGCAAAGUGGCUAUGGUUAGACUACC | 0.23
GGCGGAGCUCAACACAGCGUGGCAAAGUGGCUGUGGCUGGACUGCU | 0
GGCAGAGCUCAACACAUUGUGGCUAAGUGGCUGUGGCUAGACUGCC | 0.35
CGCAGAGCUCAACACAGCGUGGCAAAGUGUCUGUGGCUAGAAUGCC | 0.02

Variant | self-cleavage
GGCAGACCUUAACACAGCGUGGCAAAGUGGCUGUGGCUAGAUUGCC | 0.06
GGCAGAGCUCAACACAGCGAUGCAAAGUGGCUGUGGAUAGUCUGCC | 0.05
GCCAGAGCUCAACACAGCGUGGCAAAGUGGAUGUGGCCAGGCUGCC | 0.02
GGCAUCGCUCAACACAGCGUGGCAAAGUGGCUUUGGCUAGAAUGCC | 0.1
GGCAGAUCUCAACACAGCGUAGCAAAGUGGCUGUGUCUAGACUGCC | 0.02
GGCGGAGCUCAACAUAGCGUAGCAAAGUGGCUGUGGCUAGACUGCC | 0.13
GACAGAGCUCAACACAGCGUGGCAAUGUGACUGUGGCUAGAUUGCC | 0
GGCAGAGAUCAACACAGCGUGGAAUAGUGGCUGUGGCUAGACUGCC | 0.06
GGCAGAGCUCAACACAGCGUGCCAAAGCAGCUGUGGCUAGACUGCC | 0.14
GGCAGAGCUAUAGACAGCGGGGCAAAGUGGCUGUGGCUAGACUGCC | 0.01
GGCAGAGCUCAACACAGUGUGGCAAAAUGGCUGUUGCUAGACUGCC | 0.04
GGCAGAGGUCAACACAGCGUGGCAAAGUGGCUGUGACUAGACAACG | 0.01
GGCAGAGCCCAAAACAGCGUGGCGAAGUGGCUGUGGCUAGACUGCC | 0.02
GCCAGCGCUCAACACAGCGAGGCAAAGUGGCUGUGGCUAUACUGAC | 0.01
GGCAGAGCUCAACAUAGGGUGCCUAAGUGGCUGUGGCUAGACUGCC | 0.07
GGCAGAGCUCAACACAGCGUGGCAAAGUGGCUGUGGCAAGUCAGCC | 0.07
GGCAGAGCUCAUCACAGCGUCGCAAAGGGGCUGUGGCUAGACUGCC | 0.12
GGCAGAGCUCAAUAAGGUGUGGCAAAGUGACUGUGGCUAGACUGCC | 0.11
GGCAGAGCUCAACAAAGCGUGGCAAAGUGGCUGUGUCUAGACGGCC | 0
GGCAGAGCUCAACAUAGCGUGGCAAAGUGGUUGUGGCUAGACUUCC | 0.06
GGCAGAGUUCACCACCGCGUGGCAAAGUGGCUGUGACUAGACUGCC | 0.04
GGCAGAGAUCAACACAGCGUGGCAAAGUUGCUGUCGCUAGACUGCC | 0.11
GGCAGAGCUCCACUCAGCCUGGCAAAGUGGCUGUGUCUUGACUGCC | 0.01

Variant | self-cleavage
GGCAGCCCUCAACACAGCUUGGCAAAGUGGCUAUGGCUAGACUGCC | 0.24
GCCAGAGCGCAACGAAGCGUGGCAAAGUGGCUGUGGCUAGACUGCC | 0.48
GGCAGAGCUCAACACGGCGUGUCAAAGUGGCUAUGGCUAGACUGCC | 0.03
GGCAGAACUCUACACAGCGUGGCAAAUUGGCUGUGGCUCGACUGCC | 0.02
GGCAGAGCUCAACACAGCGUGGCAAAGUACCUGUGGUUAGACUGCC | 0.15
GGCGAAGCUCGACACAGCGUGGCAAAGUGGCUGUGGCUAGUCUGCC | 0.01
GGCAGCGCUAAACACAGCGUGUCCAAGUGGUUGUGGCUAGACUGCC | 0.01
GGCAGAGCUCCACCCAGCUUGGGAAAGUGGCUGUGGCUAGACUGCG | 0
GGCAGUGCUCAACACUACGUGGCCAAGUGGCUGUGGGUAGACUGCG | 0.01
GGCAGAGCUCAACAUAGCGUGGCAAAGUGGCUGGGGCUAUACUGCC | 0
GGCAGAGCUAAACACAGCAUGCCAAAGUGGCUGUGGCUAGACUGCC | 0.02
GGCAGGGCUCAACACAGCCUGGCAAAGUGGCUGUGGCUAGGCUGCC | 0.08
GGUAGUGCUCAACACAGCGUGGCAAAGUGGCUAUGGCUAAUCUGCC | 0.22
GGCAGAGCUCAACUCAGCGUGGCCAGGUGGCUGUGGCCAGACUGCC | 0.09
GGCAGAGCUCAACACAGUGUGGCAACGUGGCUGUGAUUAUACUGCC | 0.21
GGCAGAGCUCAACACAGCGCGGGAAAGUGGCUGUGGCUAAACUGCC | 0.09
GUCAUAGCUCAGCAUAGCGUGGCAAAGUGGCUGUGGCUAGACUGCC | 0.02
GGCAGAGUUCAACACAGCGUGGCAAAGUGGCUGUUGUCAGACUGCC | 0.2
GGCAGAGCUCAUCACAACGUGGCCAAGUGGCUGUGGCUAGACUGCC | 0.05
GGCAGAACUCCACACAGGGUGGCAAAGUGGGUGUGGCUAGACUGCC | 0.01
GGCAGAGCUCAACACAGCGUUGCAAAUUGGAUGUGGCUAGACUGCC | 0.61
GGCACAGCACAACACAGCGUGGCAAUGUGGCUGUGGCGAGACUUCC | 0.1
GGAAGCGCUCAACACAGCGCGGCGAAGUGGCUGUGGCUAGACUGCC | 0.07

Variant | self-cleavage
GGCAGAGCUCAACACAGCGUGGCAAAGGGGCUGUGGCCAGAAUGCC | 0.04
GGCAGAGCUCAAAACAGCGUGGCCAAGUGGCUGUGGUUAGACUGCC | 0.05
GGCAGAGCUCAACACAGCUUGGGGAAGUGGCUGUGGCUAGACUGCC | 0.8
GGCAGAACUCAACACAGCGUGGCAAAGUCGCUAUGGCUAGACUGCC | 0.14
GGCAUAGCUCAACACAGCGUGGCAAAGUGGCUGGGGCUAGACUUCC | 0.01
GGCGGGGCUCAACAGUGCGUGGCAAAGUGGCUGUGGCUAGACUGCC | 0.02
GGCAGAGCUCAAAACAGCGUGGCAAAGUGGCUGUGGCUAGACCGCA | 0.14
GGCAGAGCUCAACACACCGUGGCACAAUGGCUGUGGCUAGAUUGCC | 0.11
GGCAGAGCUCAUCACCGCGUGGCAAAGUGGCUGGGGCUAGACGGCC | 0
GGCAGAGCUCAACACAGUGUGCCUAAGUGGCUGUAGCUAGACUGCC | 0.11
GGCAGAGCUCAACACAGCGUGGCAAAGUGCCUGUGGCUAGAUUUCC | 0.05
GGCAGAGCUCAACACAGCGUGCCAAAGUGGCUGUGGCUAAUCUGCU | 0.08
GGCAGAGCGCAACACAGCGUUUCAAAGUGGCUGUGGCUCAACUGCC | 0.02
GGCAGAACACAACACAGCGUGGCAAAGUAGCUGUGGCUAGCCUGCC | 0.4
GGCAGAGCUCAACACAGCGUGGUAAAGUGGCUGAGGCUAGAGUGCC | 0.02
GGCAGAGCUCGACACAGCGUGGCAAAGUGGCUAUGGAAGGACUGCC | 0.02
GGCAGAGCUCAACAAAGCGUGGCAAUCUGGCUGUGGGUAGACUGCC | 0.01
GGCAGAGCUCAACAGAGCGUGGCAAAGUGGAUGUGGCUAGAGUGCC | 0.01
GGCAGAGCUCAACACAGCGUUGCAAAGUUGUUGUGGCUAAACUGCC | 0.01
GCCAGAGCUAAACACAGCGUGGCAAAGUGCCUGUGGCUAGACUGCC | 0.03
GGUAGGGCUCAAUACAGCGUGACAAAGUGGCUGUGGUUAGACUUCC | 0.06
GACAGAGCUCAACCCAGCGUGGCCAAGUGGCUGUGGCUAGACUGCC | 0.08
GGCAGAGUCCAACACAGCGUGGCAAAGUUUCUGUGGCUAGACUGCC | 0.13

Variant | self-cleavage
GGCAGAGCUCAACACCGCGUGGAAAAGAGGCUGUGGAUAGACUGCC | 0.01
GGCAGAGAUCAACACAGCGGAGCAAAGUGGCUGUGGCCACACUGCC | 0.16
GGCAGAGAUCUACACAGCGUGGCAAUGUGCCUGUGGCUAGACUGCC | 0.01
GGCAGAGCUCAUCAGCGCGUGGCAAAGUGGCUGUGACUAGACUGCC | 0.02
GGCAGCGCCCAACCCAGCGUGGCGAAGUGGCUGUGGGUAGACUGCU | 0
GGCAGAGCUCAACACAGCGUAGCAAAGCGGCUCUGGCUAGAUUGCC | 0.1
GGCAGAGCUCAACCUAGCGUGGCAAAGUGGCUGUGGGUAGACUGCC | 0.03
GGCAGAGCUCAACACAGCGUUGAAUAGUGGCUUUGGCUAGACUGCC | 0.1
GGCAUAGCUCAACACAGCGUGGCAACGUGGCUGUGGCUAGAAUGCC | 0.76
GGCAGAGCGCAACACAGCGUGUCAAAGUGGCUGUCGCUAGACUUCC | 0.01
GGCGGAGCUCAACACAGCGUGGCAAAGUUGCUCUUGCUAGAAUGCC | 0.03
GGCAGGGCGCAACACAGCGUGGCAAAGUGGCUGUCGCUGGACUGCC | 0.14
GGCAGAGCUCUACACAGCGUGGCAAAGUGGUUGUGGCGAGACUUCC | 0.01
GGAAGAGCGCAACACAGUGUGGCAAAGUGGCUGUGGAUAGGCUGCG | 0.14
GCCAGAGCUCAACACAGCGUGCCAAAGUGGCUGUGGCGGGACUGUC | 0
GGCAGGGCUCACCACAGCAUGGCAAAGUGGCUGUGGCUAGACUGCC | 0
GGCAGAGCUCAACAGAGCGUGGCAAAGUGGCUGCGGCUAGACUGCA | 0.01
GGCAGAGCUCAACACAGCGUGUAAAAGUUGCUGUUGCUAGACUGCC | 0.03
GGAAGAGCUCAACAAAUCGUAGCAAAAUGGCUGUGGCUAGACUGCC | 0.13
GGCAGAGCUCAACAACGCGUGGCACAGUGGCUGUGGCUAGACUGCC | 0.11
